Measurements reported in the supplement of paper PMC4604168 (melanoma cell lines).
The other results are listed elsewhere or left out. Single values are uncertain, as repeats are few or missing.
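Also: cells treated in 1,536-well plates, then fixed and DAPI-stained, with nuclei counted from automated high-throughput microscope images.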

Each compound was assayed on WM1716 (assay: cell count relative to DMSO control; melanoma cells; higher = more viable cells). Settings: library dose: standard library concentration; 72 h.
`CC1(C)NC(=O)N(c2ccc([N+](=O)[O-])c(C(F)(F)F)c2)C1=O` [nilutamide] + CCN(CC)CCCCNc1ncc2cc(-c3cc(OC)cc(OC)c3)c(NC(=O)NC(C)(C)C)nc2n1 [PD173074] (first compound 5 µM, partner dose 0.5 µM) was tested, and the cell count was 115%. Compound `C[C@@H]1CCN(C(=O)CC#N)C[C@@H]1N(C)c1ncnc2[nH]ccc12` + CCc1ccc(CCOc2ccc(CC3SC(=O)NC3=O)cc2)nc1 [pioglitazone] (first compound 5 µM, partner dose 10 µM) has a cell count of 93.9%. `Cn1cncc1[C@@](N)(c1ccc(Cl)cc1)c1ccc2c(c1)c(-c1cccc(Cl)c1)cc(=O)n2C` [tipifarnib] + Oc1cc(-c2nc(-c3ccccc3)[nH]c2-c2ccncc2)ccc1Cl [L779450] (first compound 0.05 µM, partner dose 1 µM) was tested, and the cell count was 66.7%. For `Cn1cncc1[C@@](N)(c1ccc(Cl)cc1)c1ccc2c(c1)c(-c1cccc(Cl)c1)cc(=O)n2C` [tipifarnib] + COc1ccc(-c2ccc3c(N4CCOCC4)nc(N4C[C@@H](C)O[C@@H](C)C4)nc3n2)cc1CO [KU0063794] (first compound 0.05 µM, partner dose 0.1 µM), the cell count was 67.2%. `Cn1cncc1[C@@](N)(c1ccc(Cl)cc1)c1ccc2c(c1)c(-c1cccc(Cl)c1)cc(=O)n2C` [tipifarnib] + CCN(CC)CCCCNc1ncc2cc(-c3cc(OC)cc(OC)c3)c(NC(=O)NC(C)(C)C)nc2n1 [PD173074] (first compound 0.05 µM, partner dose 0.5 µM) showed a cell count of 61.2%. In the case of `C[C@@H]1CCN(C(=O)CC#N)C[C@@H]1N(C)c1ncnc2[nH]ccc12` + Oc1nc(-c2ccc(C(F)(F)F)cc2)nc2c1CSCC2 [XAV939] (first compound 5 µM, partner dose 10 µM), the cell count is reported as 75.9%. `O=C(Nc1cccc(Cl)c1)Nc1ncc(CCNc2ncnc3ccsc23)s1` + CCCCCCCCCCCC1=C(O)C(=O)C=C(O)C1=O [Embelin] (first compound 0.004 µM, partner dose 6 µM) was tested, and the cell count was 52.9%. With `COc1cc(Nc2ncc(F)c(Nc3ccc4c(n3)NC(=O)C(C)(C)O4)n2)cc(OC)c1OC` [Tamatinib] + O=C(Nc1ccccc1)c1cc([N+](=O)[O-])ccc1Cl [GW9662] (first compound 2 µM, partner dose 10 µM) the cell count was 79%. With `Cn1cncc1[C@@](N)(c1ccc(Cl)cc1)c1ccc2c(c1)c(-c1cccc(Cl)c1)cc(=O)n2C` [tipifarnib] + N#Cc1c(O)c2c(-c3ccc(-c4ccccc4O)cc3)csc2[nH]c1=O [A769662] (first compound 0.05 µM, partner dose 10 µM) the cell count was 73.4%. With `O=C(Nc1cccc(Cl)c1)Nc1ncc(CCNc2ncnc3ccsc23)s1` + COc1cc(N2CCC(N3CCN(C)CC3)CC2)ccc1Nc1ncc(Cl)c(Nc2ccccc2S(=O)(=O)C(C)C)n1 [NVP-TAE684] (first compound 0.004 µM, partner dose 0.4 µM) the cell count was 75.9%.
